# Measured values from PMC11995724, “Antibiotic target discovery by integrated phenotypic and activity-based profiling of electrophilic fragments” (Cell chemical biology, 2025).
# Out of some 3,200 compounds screened, about 110 (3.4%) showed an effect of 50% or more. Some of the results follow.
# Tested on: T1, V. cholerae SAD30
# T1 construct: SAD30
# Design: species or system S. aureus MSSA476 (TSB) or V. cholerae SAD30 (LB); 384-well bacterial growth screen at 25 uM, OD600 relative to DMSO control
# Details: relative growth, OD600, LB; 25 µM; inhibitor
row,Compound,% of control remaining
1,"CC(C)c1ccc(CN(C(=O)CCl)C2CC2)cc1 [6-K18, 2-chloro-N-cyclopropyl-N-{[4-(propan-2-yl)phenyl]methyl}acetamide]",82.0552%
2,"O=C(CCl)NCCOc1cccc(Cl)c1 [6-G05, 2-chloro-N-[2-(3-chlorophenoxy)ethyl]acetamide]",100.863%
3,"CCN(C(=O)CCl)c1cccc2ccccc12 [5-B08, 2-chloro-N-ethyl-N-(naphthalen-1-yl)acetamide]",103.058%
4,"C=CC(=O)N1CCOCC2(CC2)C1 [2-M15, 1-{5-oxa-8-azaspiro[2.6]nonan-8-yl}prop-2-en-1-one]",88.1887%
5,"CC(Cl)C(=O)Nc1cc2c(cc1Cl)C(=O)c1ccccc1C2=O (stereo not shown) [4-I12, 2-chloro-N-(3-chloro-9,10-dioxo-9,10-dihydroanthracen-2-yl)propanamide]",94.3714%
6,"C=CC(=O)N(C)CC(=O)N1CCc2ccc(S(C)(=O)=O)cc2CC1 [2-N08, N-[2-(7-methanesulfonyl-2,3,4,5-tetrahydro-1H-3-benzazepin-3-yl)-2-oxoethyl]-N-methylprop-2-enamide]",88.1887%
7,"CCN(CC)S(=O)(=O)c1cc(NC(=O)C(C)Cl)ccc1C (stereo not shown) [4-P09, 2-chloro-N-[3-(diethylsulfamoyl)-4-methylphenyl]propanamide]",107.138%
8,"COc1ccc(C=C(C#N)C(=O)Nc2ccccc2OC)cc1 [8-G09, 2-cyano-N-(2-methoxyphenyl)-3-(4-methoxyphenyl)prop-2-enamide]",78.9259%
9,"COc1ccc([C@H]2C[C@H](NC(=O)C(C)Cl)C2)cc1F (stereo partly shown) [6-F17, 2-chloro-N-[(1r,3r)-3-(3-fluoro-4-methoxyphenyl)cyclobutyl]propanamide]",82.0552%
10,"Cc1cc(C=C(C#N)C(=O)Nc2ccccc2)c(C)n1C1CC1 [8-E14, 2-cyano-3-(1-cyclopropyl-2,5-dimethyl-1H-pyrrol-3-yl)-N-phenylprop-2-enamide]",74.1672%
11,"CC1(C)Cc2cc(C=C(C#N)C(=O)Nc3ccccc3F)ccc2O1 [8-G20, 2-cyano-3-(2,2-dimethyl-2,3-dihydro-1-benzofuran-5-yl)-N-(2-fluorophenyl)prop-2-enamide]",73.8953%
12,"CN(C(=O)CCl)c1c(N)n(Cc2ccccc2)c(=O)[nH]c1=O [4-E06, N-(6-amino-1-benzyl-2,4-dioxo-1,2,3,4-tetrahydropyrimidin-5-yl)-2-chloro-N-methylacetamide]",101.617%
13,"C=CC(=O)N(Cc1cc(F)cc(Cl)c1)C(C)C1CCOCC1 (stereo not shown) [1-F13, N-[(3-chloro-5-fluorophenyl)methyl]-N-[1-(oxan-4-yl)ethyl]prop-2-enamide]",77.429%
14,"N#CC(=Cc1cccnc1)C(=O)NCc1ccccc1 [9-I14, N-benzyl-2-cyano-3-(pyridin-3-yl)prop-2-enamide]",83.4126%
15,"Cc1cc(C)c(CCNC(=O)CCl)c(C)c1 [6-K06, 2-chloro-N-[2-(2,4,6-trimethylphenyl)ethyl]acetamide]",92.824%
16,"CCOc1ccc(C(=O)CCl)cc1 [10-F12, 2-chloro-1-(4-ethoxyphenyl)ethan-1-one]",15.1179%
17,"Cc1c(C#N)c(NC(=O)CCl)n(Cc2ccc(F)cc2)c1C [4-O21, 2-chloro-N-{3-cyano-1-[(4-fluorophenyl)methyl]-4,5-dimethyl-1H-pyrrol-2-yl}acetamide]",91.7835%
18,"CC(Cl)C(=O)NC1CCN(Cc2cscn2)CC1 (stereo not shown) [7-D07, 2-chloro-N-{1-[(1,3-thiazol-4-yl)methyl]piperidin-4-yl}propanamide]",84.3218%
19,"N#CC(=Cc1cccc([N+](=O)[O-])c1)C(=O)NCc1ccccc1 [8-B22, N-benzyl-2-cyano-3-(3-nitrophenyl)prop-2-enamide]",88.5792%
20,"C=CCNC(=O)C(C#N)=Cc1cc(F)ccc1F [9-H07, 2-cyano-3-(2,5-difluorophenyl)-N-(prop-2-en-1-yl)prop-2-enamide]",87.3555%
21,"COc1cc(C(C)NC(=O)CCl)sn1 (stereo not shown) [7-H22, 2-chloro-N-[1-(3-methoxy-1,2-thiazol-5-yl)ethyl]acetamide]",94.8951%
22,"CC(Cl)C(=O)NC1(C(=O)N(C)C)CC(F)(F)C1 (stereo not shown) [7-K20, 1-(2-chloropropanamido)-3,3-difluoro-N,N-dimethylcyclobutane-1-carboxamide]",80.3568%

row,Compound,% of control remaining
1,"CCC1SC(=C(C#N)C(N)=O)N(c2ccc(C)cc2)C1=O (stereo not shown) [8-J15, 2-cyano-2-[5-ethyl-3-(4-methylphenyl)-4-oxo-1,3-thiazolidin-2-ylidene]acetamide]",67.6411%
2,"N#CC(=Cc1ccccc1OC(F)F)C(=O)Nc1nccs1 [9-K19, 2-cyano-3-[2-(difluoromethoxy)phenyl]-N-(1,3-thiazol-2-yl)prop-2-enamide]",89.8029%
3,"CC(NC(=O)CCl)C(=O)N1CCS(=O)(=O)CC1 (stereo not shown) [5-K14, 2-chloro-N-[1-(1,1-dioxo-1lambda6-thiomorpholin-4-yl)-1-oxopropan-2-yl]acetamide]",88.7675%
4,"N#CC(=Cc1ccc([N+](=O)[O-])o1)C(=O)NCc1ccco1 [8-I17, 2-cyano-N-[(furan-2-yl)methyl]-3-(5-nitrofuran-2-yl)prop-2-enamide]",-0.06798%
5,"C=CC(=O)Nc1cn(CC(F)(F)F)nc1C [3-D06, N-[3-methyl-1-(2,2,2-trifluoroethyl)-1H-pyrazol-4-yl]prop-2-enamide]",98.4415%
6,"C=CC(=O)N1CCN(Cc2ncon2)CC1 [3-I16, 1-{4-[(1,2,4-oxadiazol-3-yl)methyl]piperazin-1-yl}prop-2-en-1-one]",91.2075%
7,"COc1ccc(S(=O)(=O)N2CCOCC2)cc1NC(=O)CCl [4-O04, 2-chloro-N-[2-methoxy-5-(morpholine-4-sulfonyl)phenyl]acetamide]",103.688%
8,"CC(Cl)C(=O)N(C)C(C)c1cccc(NC(=O)c2ccccc2)c1 (stereo not shown) [6-J14, N-{3-[1-(2-chloro-N-methylpropanamido)ethyl]phenyl}benzamide]",76.5949%
9,"C=CC(=O)N(C)CC(=O)N1CCc2cc(OC)c(OC)cc2C1C (stereo not shown) [3-C04, N-[2-(6,7-dimethoxy-1-methyl-1,2,3,4-tetrahydroisoquinolin-2-yl)-2-oxoethyl]-N-methylprop-2-enamide]",116.615%
10,"CN(C)CCN1C(=O)C=CC1=O [10-G11, 1-[2-(dimethylamino)ethyl]-2,5-dihydro-1H-pyrrole-2,5-dione]",99.9026%
11,"C=CC(=O)N1CCCCC1CNC(C)=O (stereo not shown) [2-M07, N-{[1-(prop-2-enoyl)piperidin-2-yl]methyl}acetamide]",90.0415%
12,"C=CC(=O)N1CCC(C(=O)Nc2nncn2C)(c2ccccc2)CC1 [3-O12, N-(4-methyl-4H-1,2,4-triazol-3-yl)-4-phenyl-1-(prop-2-enoyl)piperidine-4-carboxamide]",98.0886%
13,"O=C(CCl)NC1CCN(C(=O)CCc2ccccc2)CC1 [6-N08, 2-chloro-N-[1-(3-phenylpropanoyl)piperidin-4-yl]acetamide]",95.7058%
14,"Cc1ccccc1NC(=O)C(C#N)=Cc1cc2c(cc1[N+](=O)[O-])OCO2 [9-P11, 2-cyano-N-(2-methylphenyl)-3-(6-nitro-1,3-dioxaindan-5-yl)prop-2-enamide]",84.5003%
15,"N#CC(=Cc1ccc(-c2ccccc2)cc1)C(=O)NCc1ccccc1 [8-C06, N-benzyl-3-{[1,1'-biphenyl]-4-yl}-2-cyanoprop-2-enamide]",79.1978%
16,"CC(NC(=O)CCl)c1cn(-c2ccccc2)nn1 (stereo not shown) [5-O06, 2-chloro-N-[1-(1-phenyl-1H-1,2,3-triazol-4-yl)ethyl]acetamide]",103.73%
17,"Cc1cc(CN(C(=O)CCl)c2ccc(F)cc2)nn1C [5-E14, 2-chloro-N-[(1,5-dimethyl-1H-pyrazol-3-yl)methyl]-N-(4-fluorophenyl)acetamide]",97.6778%
18,"CC(Cl)C(=O)NCC1CCCN(c2nccn3cnnc23)C1 (stereo not shown) [7-M05, 2-chloro-N-[(1-{[1,2,4]triazolo[4,3-a]pyrazin-8-yl}piperidin-3-yl)methyl]propanamide]",82.868%
19,"CC(C)OC(=O)c1c(NC(=O)CCl)sc2c1CCCC2 [4-E21, propan-2-yl 2-(2-chloroacetamido)-4,5,6,7-tetrahydro-1-benzothiophene-3-carboxylate]",106.793%
20,"C=CC(=O)NCc1ccc(C(=O)N2CCC(C(C)(C)O)CC2)cc1 [2-J20, N-({4-[4-(2-hydroxypropan-2-yl)piperidine-1-carbonyl]phenyl}methyl)prop-2-enamide]",92.6662%
21,"CC(C)c1nc(C=C(C#N)C(=O)NC2CCCCC2)c2ccccn12 [9-B15, 2-cyano-N-cyclohexyl-3-[3-(propan-2-yl)imidazo[1,5-a]pyridin-1-yl]prop-2-enamide]",92.2502%
